# Measurements as given in patent publication US20250243260A1 (ALPINE IMMUNE SCIENCES, published 2025).
# B1: CD80_182 variant CD80 IgV-Fc (E10G, V11W, E35G, M47L, A71G, Y87R) (Fc fusion)
# chain: VIHVTKEVKGWATLSCGHNVSVEELAQTRIYWQKGKKMVLTMMSGDLNIWPEYKNRTIFDITNNLSIVILGLRPSDEGTYECVVLKREKDAFKREHLAEVTLSVKADGSGGGGS[omitted - human IgG4 Fc with S228P (EU numbers)]
# B2: CD80_204 variant CD80 IgV-Fc (H18V, V20I, T28Y, E35G, M47V, R73E) (Fc fusion)
# chain: B1 chain with G10E, W11V, H18V, V20I, T28Y, L47V, G71A, R73E, R87Y
# B3: CD80_201 variant CD80 IgV-Fc (E10G, H18Y, T28Y, M47W, T62S) (Fc fusion)
# chain: B1 chain with W11V, H18Y, T28Y, G35E, L47W, T62S, G71A, R87Y
# B4: CD80_190 variant CD80 IgV-Fc (T28Y, M47L) (Fc fusion)
# chain: B1 chain with G10E, W11V, T28Y, G35E, G71A, R87Y
# B5: CD80_205 variant CD80 IgV-Fc (E10G, D46K, L85E) (Fc fusion)
# chain: B1 chain with W11V, G35E, D46K, L47M, G71A, L85E, R87Y
# B6: CD80_193 variant CD80 IgV-Fc (V11Y, M42W, T62A, L85E) (Fc fusion)
# chain: B1 chain with G10E, W11Y, G35E, M42W, L47M, T62A, G71A, L85E, R87Y
# B7: CD80_206 variant CD80 IgV-Fc (E10G, H18T, Q27T, D46E, M47L) (Fc fusion)
# chain: B1 chain with W11V, H18T, Q27T, G35E, D46E, G71A, R87Y
# B8: CD80_192 variant CD80 IgV-Fc (E7N, E35D, T101R) (Fc fusion)
# chain: B1 chain with E7N, G10E, W11V, G35D, L47M, G71A, R87Y, T101R
# B9: CD80_185 variant CD80 IgV-Fc (V11Y, T28Y, M47L) (Fc fusion)
# chain: B1 chain with G10E, W11Y, T28Y, G35E, G71A, R87Y
# B10: CD80_197 variant CD80 IgV-Fc (V11Y, E35D, Y87Q, T101R) (Fc fusion)
# chain: B1 chain with G10E, W11Y, G35D, L47M, G71A, R87Q, T101R
# B11: CD80_188 variant CD80 IgV-Fc (E35D, V68L, L85E) (Fc fusion)
# chain: B1 chain with G10E, W11V, G35D, L47M, V68L, G71A, L85E, R87Y
# B12: CD80_191 variant CD80 IgV-Fc (V11Y, T28Y, M47L, V68L, L85E) (Fc fusion)
# chain: B1 chain with G10E, W11Y, T28Y, G35E, V68L, G71A, L85E, R87Y
# B13: CD80_203 variant CD80 IgV-Fc (K9N, E10A, V11W, H18F, T28H, M47L, T62E, R73D) (Fc fusion)
# chain: B1 chain with K9N, G10A, H18F, T28H, G35E, T62E, G71A, R73D, R87Y
# B14: CD80_183 variant CD80 IgV-Fc (V11Y, T28Y, M47L, A71G, Y87R) (Fc fusion)
# chain: B1 chain with G10E, W11Y, T28Y, G35E
# B15: CD80_189 variant CD80 IgV-Fc (E10G, V11W, M47V, L85E) (Fc fusion)
# chain: B1 chain with G35E, L47V, G71A, L85E, R87Y
# B16: CD80_186 variant CD80 IgV-Fc (E7K, V11W, N63H, A71G, Y87K) (Fc fusion)
# chain: B1 chain with E7K, G10E, G35E, L47M, N63H, R87K
# B17: CD80_187 variant CD80 IgV-Fc (V11Y, H18Y, E35G, L85Q) (Fc fusion)
# chain: B1 chain with G10E, W11Y, H18Y, L47M, G71A, L85Q, R87Y
# B18: CD80_199 variant CD80 IgV-Fc (E10G, H18Y) (Fc fusion)
# chain: B1 chain with W11V, H18Y, G35E, L47M, G71A, R87Y
# B19: CD80_165 variant CD80 IgV-Fc (V11Y, M47V, F59S, L85E) (Fc fusion)
# chain: B1 chain with G10E, W11Y, G35E, L47V, F59S, G71A, L85E, R87Y
# B20: CD80_202 variant CD80 IgV-Fc (E7H, H18L, V20I, T28Y, D46S, A71G) (Fc fusion)
# chain: B1 chain with E7H, G10E, W11V, H18L, V20I, T28Y, G35E, D46S, L47M, R87Y
# B21: CD80_196 variant CD80 IgV-Fc (V11Y, M42W, E52K, T62A, L85E) (Fc fusion)
# chain: B1 chain with G10E, W11Y, G35E, M42W, L47M, E52K, T62A, G71A, L85E, R87Y
# B22: CD80_194 variant CD80 IgV-Fc (V11Y, M42W, T62A) (Fc fusion)
# chain: B1 chain with G10E, W11Y, G35E, M42W, L47M, T62A, G71A, R87Y
# B23: CD80_184 variant CD80 IgV-Fc (V11Y, A26Q, M47L, A71G, Y87R) (Fc fusion)
# chain: B1 chain with G10E, W11Y, A26Q, G35E
# B24: CD80_200 variant CD80 IgV-Fc (K9N, E10R, H18V, T28Y, A71G) (Fc fusion)
# chain: B1 chain with K9N, G10R, W11V, H18V, T28Y, G35E, L47M, R87Y
# B25: CD80_198 variant CD80 IgV-Fc (H18Y, A26E, R29S, E35D, M47L, V68M, A71G, E77G, D90G) (Fc fusion)
# chain: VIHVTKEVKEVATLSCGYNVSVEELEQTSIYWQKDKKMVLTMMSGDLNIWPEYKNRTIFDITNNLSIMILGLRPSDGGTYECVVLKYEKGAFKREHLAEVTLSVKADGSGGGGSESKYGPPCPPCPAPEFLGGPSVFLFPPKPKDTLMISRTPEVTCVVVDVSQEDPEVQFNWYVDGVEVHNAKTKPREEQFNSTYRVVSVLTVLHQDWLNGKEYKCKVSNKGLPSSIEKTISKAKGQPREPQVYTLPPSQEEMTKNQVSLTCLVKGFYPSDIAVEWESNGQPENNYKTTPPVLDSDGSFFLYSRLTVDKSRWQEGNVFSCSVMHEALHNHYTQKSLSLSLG
# Target: CD28 on Jurkat/IL2-reporter cells (UniProt P10747 19-220, limits assumed)
# Assay: cell-based or functional assay
Binder,Fold Increase over WT at 50 nM,Rel. Luminescence Units (RLU) 2 nM,Rel. Luminescence Units (RLU) 10 nM,Rel. Luminescence Units (RLU) 50 nM,Rel. Luminescence Units (RLU) 250 nM
B1,2.04 fold,2390 RLU,2720 RLU,4990 RLU,8260 RLU
B2,1.15 fold,2740 RLU,2830 RLU,2800 RLU,4010 RLU
B3,2.81 fold,3540 RLU,4200 RLU,6860 RLU,10400 RLU
B4,1.17 fold,2500 RLU,2570 RLU,2850 RLU,3320 RLU
B5,0.95 fold,2700 RLU,2590 RLU,2310 RLU,2500 RLU
B6,0.94 fold,2220 RLU,2420 RLU,2300 RLU,2490 RLU
B7,1.31 fold,2820 RLU,2710 RLU,3200 RLU,5630 RLU
B8,1.07 fold,2430 RLU,2410 RLU,2610 RLU,2800 RLU
B9,2.71 fold,2770 RLU,3810 RLU,6610 RLU,8890 RLU
B10,2.28 fold,2320 RLU,2770 RLU,5570 RLU,10300 RLU
B11,1.29 fold,3160 RLU,2890 RLU,3150 RLU,4550 RLU
B12,0.99 fold,2560 RLU,2540 RLU,2410 RLU,2650 RLU
B13,3.62 fold,3840 RLU,6280 RLU,8830 RLU,11900 RLU
B14,3.54 fold,2850 RLU,5020 RLU,8650 RLU,10900 RLU
B15,1.33 fold,2760 RLU,2880 RLU,3250 RLU,3100 RLU
B16,1.02 fold,2820 RLU,2280 RLU,2500 RLU,3270 RLU
B17,1.57 fold,2760 RLU,2720 RLU,3830 RLU,5460 RLU
B18,1.4 fold,2480 RLU,2620 RLU,3420 RLU,6050 RLU
B19,1.35 fold,2860 RLU,3120 RLU,3300 RLU,–
B20,1.46 fold,3380 RLU,3070 RLU,3570 RLU,4680 RLU
B21,0.93 fold,2290 RLU,2280 RLU,2270 RLU,2480 RLU
B22,1.07 fold,2180 RLU,2130 RLU,2620 RLU,3320 RLU
B23,3.87 fold,2970 RLU,5870 RLU,9440 RLU,11200 RLU
B24,2.58 fold,3310 RLU,4560 RLU,6300 RLU,9620 RLU
B25,1.39 fold,2460 RLU,2440 RLU,3400 RLU,5420 RLU

# Substitutions are numbered along the chain they refer to. Numbers in names are those of the source.
